From PubChem BioAssay AID1345082 (National Center for Advancing Translational Sciences (NCATS), 2018)
Out of some 94,000 compounds screened, about 4,000 (4.3%) were called active. Inconclusive results, whose numbers are uncertain, are shown with a selection of clear calls. Calls follow the shape of the dose curve; as a rule, active = well fitted inhibition curve with a large enough effect; inconclusive = small, poorly fitted or top-dose-only effect; inactive = no such curve, though single readings can be large or run the other way. Potencies beside an inconclusive call are fits to weak or partial responses and may not hold up.

assay: Cytotoxic Profiling in NIH 3T3 Cell Line of Diverse Libraries Using Quantitative High-Throughput Screening; settings: NIH 3T3 viability, CellTiter-Glo ATP luminescence, 48-72 h; series mostly up to 96.7 µM; also: nearly all actives have a fitted effect of over 55% in size
How it was run: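 Mouse fibroblast NIH 3T3 cells, 400 per well, received compound via pintool and were incubated for 48 or 72 hr prior to CellTiter-Glo ATP luminescence measurement.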
Potency is read from the fitted curve at half-maximal effect; tags tell the direction and shape of the fitted curve.

SMILES | Potency
CCC1=C(C(=O)OC)C(c2ccccc2)N2C(CC(=O)N(C)Cc3ccccc3)=CSC2=N1 (centres undefined) | inconclusive: 44.7 µM [inhibitor, partial curve, poor fit]
Cc1oc(C(O)c2ccccc2)nc1C(=O)Nc1ccc2[nH]ccc2c1 (centres undefined) | inconclusive: 79.4 µM [inhibitor, partial curve, poor fit]
O[C@H]1CN[C@H](c2nc(-c3ccc(OC(F)(F)F)cc3)no2)C1 | inactive
CC(C)C[C@@H](NC(=O)C1=C[C@@H](NC(=O)Nc2cccc(F)c2)[C@@H](O)[C@H](O)C1)C(N)=O | inactive
CCOc1ccccc1NC(=O)C1CCN(c2cnc3nccnc3c2)CC1 | inactive
Cn1c(CCC(=O)N2CC[C@@H](O)C2)nc2cc(S(=O)(=O)N3CCCC3)ccc21 | inactive
Cn1nc(C2CCN(S(=O)(=O)c3ccc4c(c3)CCCC4)CC2)n(C2CCCC2)c1=O | inconclusive: 10 µM [inhibitor, full curve, poor fit]
O=C(NCCc1ccncc1)C1CN(C(=O)CCC2CCCC2)CC12CCOCC2 (centres undefined) | inactive
O=C1Nc2ccccc2C12CCN(CC1CCCCC1)C2 (centres undefined) | inconclusive: 56.2 µM [inhibitor, partial curve, poor fit]
CC[S+](=O)([O-])N1CCC2(CC1)[C@H](C(=O)Nc1ccccc1)[C@@H](OC(N)=O)C(=O)N2C | inconclusive: 50.1 µM [inhibitor, partial curve, poor fit]
CNC(=O)C1CCCCN1Cc1ccc(-c2ccccc2OC)cc1 (centres undefined) | inconclusive: 63.1 µM [inhibitor, partial curve, poor fit]
COc1ccc(-c2ccc3ncc(Nc4cccc(F)c4)n3n2)cc1OC | inconclusive: 39.8 µM [inhibitor, partial curve, poor fit]
COc1cccc(-n2nnnc2N2CCN(C(=O)Nc3ccc(C)c(F)c3)CC2)c1 | inactive
COc1ccc(-c2ccc3c(c2)C(=O)N2C[C@@H](NS(=O)(=O)c4ccc(F)cc4)C[C@H]2C(=O)N3)c(OC)c1 | inconclusive: 35.5 µM [inhibitor, partial curve]
Cc1nn(-c2ccccc2)c2c1C(C)N(C1CCN([S+](C)(=O)[O-])CC1)C2=O (centres undefined) | inactive
COc1cccc(Nc2cc3[nH]ccc3c(C(=O)NCc3c(C)cc(C)[nH]c3=O)n2)c1 | active: 39.8 µM
COc1ccccc1CNC(=O)CCC1CCCN(S(=O)(=O)c2ccccc2F)C1 (centres undefined) | inconclusive: 39.8 µM [inhibitor, partial curve, poor fit]
CCOc1cc(-c2noc(-c3nnn4c3COC(c3ccc(F)cc3)C4)n2)ccc1OC (centres undefined) | inactive
COc1ccccc1-c1cc(C(=O)Nc2ccc3c(c2)C(=O)N2CCC[C@H]2C(=O)N3)[nH]n1 | inconclusive: 11.2 µM [inhibitor, full curve, poor fit]
O=C(Cc1ccsc1)N1CCC2(CC1)N=C(c1cccc(Br)c1)NO2 | inconclusive: 50.1 µM [inhibitor, partial curve, poor fit]
FC(F)(F)CN1C2CCC1CN(c1nccc(Nc3ccccc3Cl)n1)C2 | inconclusive: 50.1 µM [inhibitor, partial curve, poor fit]
O=C1[C@@H]2C[C@@H](CN2Cc2ccccn2)Oc2ccccc2N1Cc1ccccc1 | inconclusive: 50.1 µM [inhibitor, partial curve, poor fit]

SMILES | Potency
COc1ccc(Cc2noc(-c3ccc(N(C)Cc4nonc4C)nc3)n2)cc1 | inconclusive: 89.1 µM [inhibitor, partial curve, poor fit]
Cc1noc(C)c1-c1cc2cc(C(C)C)oc2c(Nc2ccn(C)n2)n1 | inconclusive: 56.2 µM [inhibitor, partial curve, poor fit]
OCc1ccc(-c2nccn2CCc2noc(-c3ccccc3)n2)o1 | inconclusive: 22.4 µM [inhibitor, full curve, poor fit]
Cc1ccc(C2Cn3nnc(C(=O)N4CCN(C(=O)c5ccc(C(C)(C)C)cc5)CC4)c3CO2)cc1 (centres undefined) | inconclusive: 56.2 µM [inhibitor, partial curve, poor fit]
CC[C@H]1CN(C(=O)C(C)(C)C)CC[C@H]1CC(=O)NCc1ccc(F)cc1 | inactive
O=C(C1CCCC1)N1CCC(c2nc(-c3ccc4nc[nH]c4c3)no2)CC1 | inactive
O=C(NC1CCN(c2cc(-c3cccs3)[nH]n2)C1)c1ccc(F)cc1F (centres undefined) | inconclusive: 50.1 µM [inhibitor, single point]
Cn1ncc2c(C(=O)NCc3cccc(F)c3)cc(-c3ccccc3)nc21 | inconclusive: 50.1 µM [inhibitor, partial curve, poor fit]
O=C(Cc1ccccc1F)NCCC1CCN(C(=O)Nc2cc(F)cc(F)c2)CC1 | inconclusive: 50.1 µM [inhibitor, partial curve, poor fit]
CC#CCn1cc2c3c(cccc31)[C@H](CC(C)C)N[C@H](C(=O)NCc1ccco1)C2 | active: 89.1 µM
CCCS(=O)(=O)N1CCC2(CC1)C(=O)N(c1cccc(F)c1)C2c1ccccc1 (centres undefined) | inactive
COc1ccccc1-c1ccc(NCC2CCCN(C(=O)C3CC3)C2)nn1 (centres undefined) | inactive
CN(Cc1ccccc1)Cc1cc(CC2(NCc3ccccc3F)COC2)no1 | inconclusive: 31.6 µM [inhibitor, full curve]
CC(=O)c1cc(C(=O)N2CCCC(CCc3ccccc3C)C2)[nH]n1 (centres undefined) | inconclusive: 44.7 µM [inhibitor, partial curve, poor fit]
O=C(NCC1CC1)c1ccc(Cn2ccn3nc4c(c3c2=O)CCCC4)cc1 | inconclusive: 3.55 µM [inhibitor, full curve, poor fit]
O=C1Nc2ccc(-c3cccc(C(F)(F)F)c3)cc2C(=O)N2CCN(C(=O)C3CCCC3)C[C@@H]12 | inconclusive: 39.8 µM [inhibitor, partial curve, poor fit]
CC(C)NC(=O)c1ccc2nc(-c3cccnc3)oc2c1 | inactive
O=C(CCC[C@H]1NC[C@@H]2C[C@H]1CN(Cc1ccccc1)C2)N1CCN(Cc2ccccc2F)CC1 | inconclusive: 39.8 µM [inhibitor, partial curve, poor fit]
CCc1ccc(NC(=O)C2CC(=O)N(c3n[nH]c4cccc(F)c34)C2)cc1 (centres undefined) | inactive
O=C(C1CCCN1C(=O)Nc1ccc(Cl)cc1)N1CCC(N2CCOCC2=O)CC1 (centres undefined) | inactive
O=[S+]([O-])(c1cccs1)N1CCN(c2nccc(Nc3ccccc3F)n2)CC1 | active: 25.1 µM
O=C(c1ccccc1)N1CCc2nc(-c3ccc(Cl)cc3)nc(-c3ccccc3)c2C1 | inconclusive: 44.7 µM [inhibitor, partial curve, poor fit]

SMILES | Potency
O=C(Cc1ccc(F)cc1)N1CC(c2noc(C3CCCN3CC3CC3)n2)C1 (centres undefined) | inactive
O=C(c1cccc(Cl)c1)N1CCCC(C(=O)N2CCCC(c3nc4ncccc4[nH]3)C2)C1 (centres undefined) | inactive
COCCNc1ncc(-c2ccc(SC)cc2)c2c1OCC2 | inconclusive: 79.4 µM [inhibitor, partial curve]
Cc1nn(-c2ccccc2)c2c1C(C(C)C)N(C1CCN([S+](C)(=O)[O-])C1)C2=O (centres undefined) | inconclusive: 50.1 µM [inhibitor, partial curve, poor fit]
O=C(C1CCC1)N1CCC(N2CC3CC(C2)[C@H]2CCCC(=O)N2C3)CC1 (some centres undefined) | inactive
Cc1ccc(OCC(=O)N2CCCCCC2c2nnc(-c3ccccc3)o2)cc1 (centres undefined) | inconclusive: 50.1 µM [inhibitor, partial curve, poor fit]
O=c1c2c(n(Cc3cccnc3)n1CCc1ccccc1)CN(CC1CC1)CC2 | active: 39.8 µM
COc1ccc(-c2nnc(C[C@@H]3C[C@@H](C(C)C)[C@H](CO)C=C3C)o2)cc1 | inconclusive: 79.4 µM [inhibitor, partial curve, poor fit]
O=C1CC(c2noc(-c3ccc(Cl)cc3)n2)CN1c1ccc(F)cc1 (centres undefined) | inconclusive: 70.8 µM [inhibitor, single point]
CSc1ccc(-c2cccc(CN3CCC(N[S+](=O)([O-])c4c(C)noc4C)CC3)c2)cc1 | active: 14.1 µM
O=C(c1nnc(CN2CCN(c3ccccn3)CC2)n1-c1ccccc1)N1CCC[C@@H]1c1cccc(F)c1 | inconclusive: 28.2 µM [inhibitor, partial curve]
Cc1ccc(C)c(N2CCN(C(=O)c3cc4n(n3)CC(c3ccc(Cl)cc3)OC4)CC2)c1 (centres undefined) | inconclusive: 44.7 µM [inhibitor, partial curve, poor fit]
O=C(Nc1ccc(-c2nnc3n2CCCC3)cc1)c1cccc(F)c1 | inactive
Fc1ccccc1-c1cnc2n[nH]c(-c3ccccc3)c2n1 | active: 89.1 µM
Cn1ccnc1C(=O)N1CCN(C(=O)N2CC3CC(C2)[C@H]2CCCC(=O)N2C3)CC1 (some centres undefined) | inactive
CCOc1cc(=O)n2c(c1C(=O)Nc1ccccc1C(=O)OC)CCCC2 | inconclusive: 50.1 µM [inhibitor, partial curve, poor fit]
COc1ccc(C2Cn3nnc(-c4nc(-c5ccc(F)c(Br)c5)no4)c3CO2)cc1 (centres undefined) | inactive
CCc1ccc(-c2cc3n(n2)CCCN(C(=O)CCc2cc(Cl)no2)C3)cc1 | inconclusive: 50.1 µM [inhibitor, partial curve, poor fit]
O=C(NCCc1nc(-c2cccnc2)no1)c1coc2c1C(=O)CCC2 | inconclusive: 39.8 µM [inhibitor, partial curve, poor fit]
Cc1cnc(C)n1C1CCN(S(=O)(=O)c2ccc(C#N)cc2)CC1 | inactive
